Laboratory results: PubChem BioAssay AID1460 (National Center for Advancing Translational Sciences (NCATS), 2008)
“And” between values parts separate entries of the source, which are not always exact repeats. Equal entries are not always repeated. In all, about 270,000 compounds went through this assay and about 5,800 (2.1%) were called active. Inconclusive results, whose numbers are uncertain, are shown with a selection of clear calls. Calls come from the whole dose curve; as a rule, active = well fitted inhibition curve with a large enough effect; inconclusive = small, poorly fitted or top-dose-only effect; inactive = flat fitted curve, though single readings scatter. Where the call is inconclusive, the potency comes from a doubtful curve fit.

Target: Microtubule-associated protein tau (Homo sapiens) (UniProt P10636)
Sequence of UniProt P10636 (P10636 whole entry, looked up): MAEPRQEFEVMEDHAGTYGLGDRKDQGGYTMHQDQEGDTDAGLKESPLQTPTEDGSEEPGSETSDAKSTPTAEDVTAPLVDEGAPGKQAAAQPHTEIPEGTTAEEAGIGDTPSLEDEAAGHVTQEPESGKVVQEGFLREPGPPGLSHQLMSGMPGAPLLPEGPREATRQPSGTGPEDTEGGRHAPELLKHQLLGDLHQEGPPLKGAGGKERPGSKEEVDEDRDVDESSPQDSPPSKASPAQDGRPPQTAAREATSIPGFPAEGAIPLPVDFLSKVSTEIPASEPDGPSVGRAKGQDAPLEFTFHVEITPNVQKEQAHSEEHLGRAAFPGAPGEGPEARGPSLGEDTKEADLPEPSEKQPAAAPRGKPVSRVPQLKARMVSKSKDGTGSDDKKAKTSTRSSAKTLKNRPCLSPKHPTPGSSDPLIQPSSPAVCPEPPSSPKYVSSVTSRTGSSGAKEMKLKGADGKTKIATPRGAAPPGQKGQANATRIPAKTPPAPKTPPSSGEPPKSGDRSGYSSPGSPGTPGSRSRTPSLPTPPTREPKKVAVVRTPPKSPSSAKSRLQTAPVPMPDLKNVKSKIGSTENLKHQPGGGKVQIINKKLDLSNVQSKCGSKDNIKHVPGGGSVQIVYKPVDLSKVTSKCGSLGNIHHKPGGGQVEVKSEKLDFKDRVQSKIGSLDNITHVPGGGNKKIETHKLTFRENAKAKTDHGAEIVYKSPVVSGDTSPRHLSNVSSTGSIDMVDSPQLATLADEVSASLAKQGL
Assay: qHTS for Inhibitors of Tau Fibril Formation, Thioflavin T Binding; note: nearly all actives have a fitted effect of over 55% in size
Settings: recombinant tau K18 P301L (four-repeat tau fragment), heparin-induced fibrillization, ThT fluorescence; series mostly up to 57.4 µM
In short: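 K18 P301L tau (15 uM + 0.24 uM Alexa 594-tagged), heparin 20 uM, NaOAc pH 7, 6 h 37 C; ThT 30 uM, 1 h RT, ex 450/em 510 nm.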
% is set by controls: 0 for no effect and ±100 for the full control effect; potency is the fitted concentration of half-maximal effect; tags give direction and shape of the fitted curve.

Compound	Potency	activity, negative = inhibition
CCCCCCn1cnc2c(oc3nc4c(cc32)CCCC4)c1=O	inconclusive: 2.82 µM [inhibitor, full curve]	
CC(CNC(=O)c1ccc(Cn2c(=O)c3cccn3c3cccnc32)cc1)c1ccccc1 (stereo not given)	inactive	
CO[C@@H]1/C=C\CC(=O)N[C@@H](C)C(=O)OC[C@@H](OC)[C@H](C)CCCC(=O)OC[C@H]1C		inactive: -8.16% [at 11.5 µM]
COc1ccc(-c2cc3nc(-c4ccccc4)cc(N4CCC(O)CC4)n3n2)cc1	inconclusive: 39.8 µM [activator, single point]	
c1ccc(-n2c(SCC3CCCCO3)nnc2-c2cnccn2)cc1 (stereo not given)	inactive	
O=C(Oc1ccc2c(=O)c(Cl)coc2c1)c1cccnc1	inconclusive: 17.8 µM [inhibitor, partial curve]	
COc1ccc(OC)c(C2CC(=O)c3c([nH]c(C(=O)OCc4ccc(C)cc4)c3C)C2)c1 (stereo not given)	inconclusive: 14.1 µM [inhibitor, partial curve]	
CCCCOc1ccc(C2C(C(=O)c3ccc(C)o3)=C(O)C(=O)N2CC2CCCO2)cc1 (stereo not given)	inconclusive: 14.1 µM [inhibitor, partial curve]	
CCc1ccc2[nH]c(O)c(N=NC3=NC(=O)CS3)c2c1	inconclusive: 20 µM [inhibitor, partial curve, poor fit]	
O=C(N/N=C/c1ccccc1C(F)(F)F)c1ccc(O)cc1	inconclusive: 0.0501 µM [inhibitor, full curve, poor fit]	
O=C1N/C(=N\N=C\c2cccnc2)SC1Cc1ccc(SC(F)F)cc1 (stereo not given)	inactive	
Cc1ccc(CSc2ncc(Cl)c(C(=O)Oc3ccccc3F)n2)cc1	active: 15.8 µM	
CCc1ccccc1NC(=S)N(CCN1CCCCC1)Cc1ccco1	inactive	
CC(C)CN1CCC(C(=O)N2CCN(c3ccccc3F)CC2)CC1	inactive	
O=C(CN1C(=O)COc2ccc(S(=O)(=O)N3CCCCCC3)cc21)N1CCN(c2ccc(F)cc2)CC1	inactive	
Cn1nccc1/C=C(/C#N)S(=O)(=O)c1ccccc1	inactive	
Cc1cc(Cl)ccc1OC(C)C(=O)Nc1ccccc1N1CCOCC1 (stereo not given)	inconclusive: 31.6 µM [inhibitor, partial curve]	
CCn1c(SCC(N)=O)nnc1-c1ccc(S(=O)(=O)N2CCN(C)CC2)cc1	inactive	
CCOC(=O)C(NC(=O)c1ccc(F)cc1)(Nc1sc2c(c1C(N)=O)CCC2)C(F)(F)F (stereo not given)	inconclusive: 17.8 µM [inhibitor, partial curve, poor fit]	
O=C(Nc1cccc([N+](=O)[O-])c1)c1cc2ccccc2cc1O	inconclusive: 15.8 µM [inhibitor, partial curve]	
O=C(NCCC1=CCCCC1)c1cccc2c1C(=O)N(C1CCCCC1)C2	inconclusive: 44.7 µM [inhibitor, single point]	
CCOC(=O)c1sc(NC(=O)c2cc3ccccc3o2)nc1C	inconclusive: 0.891 µM [inhibitor, full curve]	
Cc1cccc2c1-c1sc(C(=O)NCCCN3CCN(c4ccccc4F)CC3)cc1CO2	inconclusive: 3.98 µM [inhibitor, full curve]	

Compound	Potency	activity, negative = inhibition
O=C(COC(=O)c1cc(=O)[nH]c(=O)[nH]1)Nc1cccc(S(=O)(=O)N2CCOCC2)c1	inactive	
CC(C)Cn1c(N)c(C(=O)COC(=O)c2ccc3c(c2)OCCO3)c(=O)n(C)c1=O	inconclusive: 39.8 µM [inhibitor, single point]	
CC(C)c1ccc(/C=C2\SC(N3CCCC3)=NC2=O)cc1	inactive	
Cc1ccc(-c2nn(CCC#N)cc2C=C(C#N)C#N)cc1	inconclusive: 35.5 µM [inhibitor, single point]	
O=C(O)CCn1cc(/C=C2/NC(=S)N(c3ccccc3)C2=O)c(-c2ccccc2)n1	inactive	
Cc1ccc(S(=O)(=O)NC(=O)NCc2ccc(Cl)cc2)cc1	inconclusive: 39.8 µM [inhibitor, single point]	
CCOC(=O)c1ccc(N2NC(=O)/C(=C/c3ccc(OC(=O)c4ccco4)c(OC)c3)C2=O)cc1	active: 22.4 µM	
O=C1c2oc3ccc(Cl)cc3c(=O)c2C(c2ccccn2)N1CCCN1CCOCC1 (stereo not given)	inconclusive: 20 µM [inhibitor, partial curve]	
CCOc1ccc(C(=O)/C=C/c2cn(CC(O)CN3CCc4ccccc43)c3ccccc23)cc1 (stereo not given)	inconclusive: 3.16 µM [inhibitor, full curve]	
Cc1ccc(C2C(C#N)=C(N)OC3=C2C(=O)CCC3)s1 (stereo not given)	inactive	
O=C(Nc1ncc(Cc2cccc(Cl)c2Cl)s1)c1ccc([N+](=O)[O-])cc1	inconclusive: 3.16 µM [inhibitor, full curve, poor fit]	
COc1ccccc1NC(=O)Nc1cc(F)ccc1F	inconclusive: 8.91 µM [inhibitor, partial curve]	
Nc1cc(-c2ccncc2)c[nH]c1=O	active: 3.55 µM and active: 1.41 µM	
CCN(c1ccccc1C)S(=O)(=O)c1nnc(NC(=O)c2ccccc2C)s1	inconclusive: 5.62 µM [inhibitor, partial curve]	
O=C(NCc1ccccn1)c1ccc(NC(=O)c2ccco2)cc1	inactive	
COc1cc(NC(=O)N2CCSc3ccccc32)cc(OC)c1OC	inactive	
CC(C)Oc1ccc(CNC(=O)c2ccc3c(c2)nc2n3CCOC2)cc1	inconclusive: 0.0251 µM [activator, full curve, poor fit]	
C=CC1=C2C=C(C3CC3)N(CCOC)C=C2C(=O)C(C)(OC(=O)c2ccco2)C1=O (stereo not given)		inactive: -6.12% [at 11.5 µM]
O=C(/C=C/Nc1ccccc1O)c1ccco1	active: 12.6 µM	
Cc1cc(C)c2c(N)c(-c3nnc(SCc4ccc(Cl)cc4)n3C)sc2n1	inconclusive: 2 µM [inhibitor, full curve, poor fit]	
Cc1cc(-c2nnc(-c3ccccc3)c(-c3ccccc3)n2)c(C)o1	inconclusive: 31.6 µM [inhibitor, single point]	
COc1ccc(C(=O)Nc2ccc3nc4c(c(Nc5ccccc5OC)c3c2)CCCC4)c(OC)c1	active: 17.8 µM	
